The supplement of paper PMC6206098
± gives the uncertainty stated by the source. Shown are siRNA guide strands that differ only in the seed, positions 2 to 7.

What was measured:
[1] = test system: 3LL; assay: cell viability relative to siNT1 control; higher = less toxic; conditions: concentration: 10 nM; 96 h; Mus musculus;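 note: Luminescence-based viability of cells reverse transfected in 384-well plates with lipid-complexed siRNAs built on a non-toxic 19mer backbone whose passenger strand carries 2′-O-methyl groups at positions 1 and 2, triplicates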
[2] = test system: H460; assay: cell viability relative to lipid-only control; HeyA8 human ovarian and H460 human lung cancer; M565 mouse liver and 3LL mouse lung cancer; siNT1 is a non-toxic control siRNA; higher = less toxic; conditions: concentration: 10 nM; 96 h; Homo sapiens
Experimental: (§1)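 Arrayed screen of 4096 siRNA duplexes, each carrying one of all possible 6mer seeds at guide-strand positions 2-7 in a fixed neutral 19mer scaffold (constant flanks: U at position 1, then ACAUGUAAACCA, plus a 3' AA overhang). The passenger strand is 2'-O-methylated at positions 1-2 so only the guide strand loads into RISC. Duplexes were reverse-transfected at 10 nM with RNAiMAX in triplicate in 384-well plates; viability was read by CellTiter-Glo ATP content 96 h after transfection. Values are % viability normalised to lipid-only wells (HeyA8, H460, M565) or to siNT1 (3LL).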

[3] = test system: HeyA8; assay: as above; conditions: concentration: 10 nM; 96 h; Homo sapiens
Experimental: as §1

[4] = test system: M565; assay: as above; conditions: concentration: 10 nM; 96 h; Mus musculus
Experimental: as §1
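Throughout, for cell viability relative to lipid-only control: reverse lipid transfection in 384-well plates, in triplicate, of duplexes on a non-toxic 19mer backbone with passenger strand 2′-O-methylated at positions 1 and 2, luminescence viability read-out.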

Sequence	cell viability [1]	cell viability [2]	cell viability [3]	cell viability [4]
UCGAUAAACAUGUAAACCAAA	94.3 ± 18%	72.3 ± 4.2%	90.4 ± 8.6%	82.4 ± 5.2%
UCACGCAACAUGUAAACCAAA	105 ± 13%	37.7 ± 7.6%	87 ± 6%	76.4 ± 6.4%
UGCCUGCACAUGUAAACCAAA	15.6 ± 5.7%	17 ± 1.1%	9.65 ± 1.6%	27.2 ± 1.1%
UAUCAUCACAUGUAAACCAAA	20.6 ± 2.8%	36.9 ± 3%	56.4 ± 1.9%	62.5 ± 4.8%
UUUAGUAACAUGUAAACCAAA	106 ± 11%	86.5 ± 15%	99.8 ± 3.1%	101 ± 14%
UAAGUGCACAUGUAAACCAAA	76.6 ± 7.2%	63.1 ± 11%	56.2 ± 9.9%	103 ± 15%
UAGAUCGACAUGUAAACCAAA	79.4 ± 5.1%	76.4 ± 9.9%	83.3 ± 5.6%	49.9 ± 5%
UCCCUCUACAUGUAAACCAAA	75.3 ± 15%	38.1 ± 6.3%	44.66 ± 0.21%	55.6 ± 5.1%
UCCUCGUACAUGUAAACCAAA	83.5 ± 17%	71.1 ± 8.9%	68.9 ± 12%	59.7 ± 6%
UCCAGUUACAUGUAAACCAAA	87 ± 16%	57.6 ± 7.8%	60.8 ± 7.3%	15.9 ± 3.8%
UAUCAUUACAUGUAAACCAAA	107 ± 11%	44.4 ± 11%	96.9 ± 11%	94.8 ± 14%
UGAGUUUACAUGUAAACCAAA	86.5 ± 15%	66.7 ± 3.7%	49.5 ± 4.8%	31.4 ± 3%
UAUGCUAACAUGUAAACCAAA	102 ± 11%	85.9 ± 6.5%	94.4 ± 4.4%	90.6 ± 14%
UGCUCCAACAUGUAAACCAAA	56.5 ± 11%	44.2 ± 4.9%	32.3 ± 3.8%	48.5 ± 3.4%
UGAAGCUACAUGUAAACCAAA	13.4 ± 1.9%	35.5 ± 3.2%	14.7 ± 2.5%	10.7 ± 0.81%
UAUACCCACAUGUAAACCAAA	41.3 ± 2.9%	42.9 ± 2.2%	45.3 ± 0.35%	48.9 ± 12%
UGUCGCGACAUGUAAACCAAA	88.4 ± 18%	57.6 ± 4.9%	81.4 ± 7.9%	56.47 ± 0.14%
UCAGACCACAUGUAAACCAAA	85.7 ± 22%	31.2 ± 5.5%	63.1 ± 1.6%	31.9 ± 7.7%
UUCAGGUACAUGUAAACCAAA	36.7 ± 16%	42.4 ± 4.3%	62.2 ± 1.5%	19.4 ± 4.4%

Sequence	cell viability [1]	cell viability [2]	cell viability [3]	cell viability [4]
UAACGCUACAUGUAAACCAAA	81.8 ± 4.2%	62.5 ± 6.2%	83 ± 8.7%	70.2 ± 3.8%
UGACAGUACAUGUAAACCAAA	2.33 ± 0.12%	27 ± 4.9%	10.2 ± 0.79%	3.32 ± 0.45%
UGUUUAUACAUGUAAACCAAA	89.9 ± 13%	76 ± 2.1%	78.1 ± 4.8%	73.5 ± 8.2%
UUGUGGGACAUGUAAACCAAA	34.6 ± 6.6%	46 ± 4.1%	13.1 ± 0.75%	24.7 ± 7.2%
UCCCCGAACAUGUAAACCAAA	108 ± 24%	65.2 ± 8.5%	91.3 ± 8.2%	61.5 ± 11%
UGUCCCGACAUGUAAACCAAA	42.9 ± 10%	44.3 ± 7.1%	31.5 ± 6.9%	5.93 ± 2.5%
UCUCUUAACAUGUAAACCAAA	97.7 ± 14%	35.4 ± 3.9%	89.7 ± 6.5%	64.6 ± 17%
UCUUCUCACAUGUAAACCAAA	90.2 ± 12%	63.8 ± 4.3%	52.1 ± 4%	47 ± 12%
UCAAACAACAUGUAAACCAAA	89.5 ± 15%	67.2 ± 8.9%	79.2 ± 10%	79.1 ± 12%
UAAGUACACAUGUAAACCAAA	64.6 ± 8.8%	35.5 ± 6.2%	33.5 ± 4.4%	66 ± 7.8%
UCGCCUUACAUGUAAACCAAA	80.2 ± 20%	67.3 ± 11%	68 ± 6.8%	52 ± 17%
UUCUCCUACAUGUAAACCAAA	24 ± 4.4%	45.9 ± 7.1%	52.3 ± 3.1%	41.9 ± 7.5%
UUUGGCUACAUGUAAACCAAA	32.4 ± 0.94%	46.5 ± 4.5%	87 ± 2%	36.8 ± 4%
UGGCUGGACAUGUAAACCAAA	2.92 ± 0.2%	7.78 ± 0.82%	1.68 ± 1.7%	8.51 ± 1.3%
UAACUACACAUGUAAACCAAA	82 ± 5.9%	61.51 ± 0.49%	78.8 ± 19%	69.4 ± 5%
UUCUGAAACAUGUAAACCAAA	101 ± 4.3%	73.5 ± 7.8%	89.46 ± 0.46%	97.6 ± 15%
UGGGUAGACAUGUAAACCAAA	2.58 ± 0.82%	18.3 ± 5.9%	4.3 ± 0.55%	18.8 ± 5.9%
UACGUUUACAUGUAAACCAAA	86.9 ± 9.6%	79.9 ± 6.8%	44.5 ± 3.9%	63.8 ± 6.8%
UAUAAAGACAUGUAAACCAAA	101 ± 19%	77 ± 2.5%	95 ± 5.8%	85.8 ± 3.5%

Sequence	cell viability [1]	cell viability [2]	cell viability [3]	cell viability [4]
UUUUUAGACAUGUAAACCAAA	104 ± 8.9%	81.2 ± 9.4%	97.9 ± 9.6%	79.9 ± 3.9%
UUGUUCCACAUGUAAACCAAA	17.9 ± 3.1%	45 ± 6.2%	18 ± 1.5%	11.9 ± 1.6%
UGUACUGACAUGUAAACCAAA	90.2 ± 6.7%	110 ± 5.8%	92.6 ± 5.7%	51.8 ± 8.6%
UUACGUAACAUGUAAACCAAA	102 ± 8.9%	99.6 ± 11%	97.4 ± 5.3%	74.5 ± 10%
UAGUCCAACAUGUAAACCAAA	40.8 ± 8.3%	75.1 ± 21%	51.6 ± 9.4%	24 ± 3.9%
UGUAUGGACAUGUAAACCAAA	33.4 ± 5%	57.9 ± 7%	55.2 ± 6.6%	12.4 ± 2.5%
UGAUACCACAUGUAAACCAAA	34.3 ± 3.7%	18.5 ± 0.56%	4.04 ± 0.64%	19.2 ± 6.8%
UGAUAGUACAUGUAAACCAAA	16.9 ± 3.1%	52 ± 3.4%	42.6 ± 7%	16.7 ± 1.9%
UUCGUGCACAUGUAAACCAAA	28.5 ± 8.3%	20.4 ± 1.7%	8.93 ± 0.92%	31.5 ± 3.7%
UGUUUUAACAUGUAAACCAAA	85.6 ± 5.4%	63.3 ± 4.2%	88.7 ± 4.4%	99.5 ± 20%
UCGGCACACAUGUAAACCAAA	50.9 ± 6.6%	40.2 ± 2.7%	20.9 ± 1.6%	23.5 ± 3%
UAGCUCUACAUGUAAACCAAA	34.7 ± 2.4%	42.6 ± 0.9%	53.2 ± 4.4%	29.9 ± 2.4%
UUUUUCCACAUGUAAACCAAA	19.1 ± 0.57%	45.5 ± 5.1%	39.5 ± 4.9%	69.9 ± 2.8%
UGACUAUACAUGUAAACCAAA	82.7 ± 13%	56.7 ± 4.7%	67.8 ± 4%	70.6 ± 9.3%
UAGUAAAACAUGUAAACCAAA	90.8 ± 7.7%	71.9 ± 8.2%	86.6 ± 6.6%	75.4 ± 10%
UGAAAGAACAUGUAAACCAAA	101 ± 16%	88.3 ± 17%	79.9 ± 1.8%	51.7 ± 6.2%
UAUCGCAACAUGUAAACCAAA	117 ± 11%	91.9 ± 6%	101 ± 3.2%	102 ± 20%
UCAAUCCACAUGUAAACCAAA	75.4 ± 11%	50.7 ± 5.1%	54.5 ± 5.6%	50.4 ± 1.8%
UAUUGUCACAUGUAAACCAAA	18.7 ± 3.7%	71.1 ± 6.9%	64.1 ± 3.5%	109 ± 18%
